{
  "source": "PubChem BioAssay AID1460",
  "about": "(National Center for Advancing Translational Sciences (NCATS), 2008)",
  "note": "Out of some 270,000 compounds screened, about 5,800 (2.1%) were called active. About 16% were inconclusive and are not listed. The call rests on the fitted dose curve; in most records, active means well fitted inhibition curve with a large enough effect; inconclusive means small, poorly fitted or top-dose-only effect; inactive means flat fitted curve, though single readings scatter. This is a selection; strong and weak results do not stand in their true shares. Some structures have more than one record in an assay (separate samples or runs), and their calls can disagree. On the % scale 0 is the no-effect control and ±100 the full control effect; potency means the concentration at half of the fitted maximal effect.",
  "data": [
    {"biological_target": "Microtubule-associated protein tau (Homo sapiens) (UniProt P10636)", "sequence (P10636 whole entry, looked up, the tested form may be a part)": "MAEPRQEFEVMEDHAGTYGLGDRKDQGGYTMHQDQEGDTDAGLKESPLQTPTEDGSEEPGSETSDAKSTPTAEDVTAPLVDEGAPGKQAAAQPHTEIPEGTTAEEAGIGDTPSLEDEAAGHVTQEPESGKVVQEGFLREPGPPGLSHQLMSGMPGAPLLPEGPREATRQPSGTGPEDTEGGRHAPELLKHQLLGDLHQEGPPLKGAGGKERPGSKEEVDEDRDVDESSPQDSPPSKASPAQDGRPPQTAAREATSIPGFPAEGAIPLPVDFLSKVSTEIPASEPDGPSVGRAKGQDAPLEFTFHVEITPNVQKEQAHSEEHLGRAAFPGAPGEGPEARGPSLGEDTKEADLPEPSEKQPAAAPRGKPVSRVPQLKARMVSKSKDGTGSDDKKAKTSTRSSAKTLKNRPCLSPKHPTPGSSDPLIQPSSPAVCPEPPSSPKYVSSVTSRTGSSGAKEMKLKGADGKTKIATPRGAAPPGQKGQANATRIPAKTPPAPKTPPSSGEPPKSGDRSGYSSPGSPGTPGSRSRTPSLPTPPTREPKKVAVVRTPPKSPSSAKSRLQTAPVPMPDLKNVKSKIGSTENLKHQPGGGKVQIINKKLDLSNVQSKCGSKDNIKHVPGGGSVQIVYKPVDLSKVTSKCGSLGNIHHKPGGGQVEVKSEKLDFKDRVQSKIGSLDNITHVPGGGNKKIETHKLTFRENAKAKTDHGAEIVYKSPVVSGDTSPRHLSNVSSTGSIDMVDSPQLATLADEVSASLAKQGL", "experiment": "qHTS for Inhibitors of Tau Fibril Formation, Thioflavin T Binding; further: nearly all actives have a fitted effect of over 55% in size", "details": "recombinant tau K18 P301L (four-repeat tau fragment), heparin-induced fibrillization, ThT fluorescence; series mostly up to 57.4 µM; activity, negative = inhibition: at the top concentration", "outline": "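K18 P301L tau (15 uM + 0.24 uM Alexa 594-tagged), heparin 20 uM, NaOAc pH 7, 6 h 37 C; ThT 30 uM, 1 h RT, ex 450/em 510 nm.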", "values": [
      {"smiles": "COC(=O)Cn1c(=O)c2c(n(Cc3ccccc3)c1=O)N/C(=C/c1ccc(Br)cc1)C2=O", "Potency": "active: 15.8 µM"},
      {"smiles": "CC1=C(C(=O)O)N2C(=O)[C@@H](NC(=O)[C@H](N)c3ccccc3)[C@H]2SC1", "activity, negative = inhibition": "inactive: -18.2%"},
      {"smiles": "CC1(OC(=O)C2CCCC2)C(=O)C=C2C=C(c3ccsc3)N(Cc3ccccc3)C=C2C1=O", "note": "(stereo not given)", "activity, negative = inhibition": "inactive: 2.55% [at 11.5 µM]"},
      {"smiles": "COC(=O)CCCC1=CC2=CC(=O)C(C)(OC(=O)c3cccs3)C(=O)C2=CN1CCc1ccccn1", "note": "(stereo not given)", "activity, negative = inhibition": "inactive: -8.84% [at 11.5 µM]"},
      {"smiles": "CC(=O)C1=C(C)N(Cc2ccccc2)C(=O)N[C@H]1c1cccc(C(F)(F)F)c1", "Potency": "inactive"},
      {"smiles": "CCC1=C(OC(=O)N(CC)CC)N2C(=O)OC(=NCCc3c[nH]c4ccccc34)[C@]2(C)[C@H]2C1=CC[C@H]1C(=O)N(CC(=O)OC)C(=O)[C@H]12", "activity, negative = inhibition": "inactive: -9.55%"},
      {"smiles": "Cn1sc(=O)c2cc(S(=O)(=O)NC3CC3)ccc21", "Potency": "active: 12.6 µM"},
      {"smiles": "C[C@@H](C(=O)NCC1CC1)[C@H]1C[C@]1(C)[C@H](NC(=O)OCc1ccccc1)c1ccccc1", "activity, negative = inhibition": "inactive: -18.1%"},
      {"smiles": "COc1ccc2c(c1)CC/C(=C\\Nc1ccc3c(c1)OCO3)C2=O", "Potency": "active: 1.26 µM"},
      {"smiles": "Cc1ccc(/C=C/C(=O)Nc2ccc(S(N)(=O)=O)cc2)o1", "activity, negative = inhibition": "inactive: -15.5%"},
      {"smiles": "CC(/C=N\\N1CCN(Cc2ccc(C)cc2)CC1)=C\\c1ccccc1", "activity, negative = inhibition": "inactive: 1.16%"},
      {"smiles": "CCC1(O)CC2CN(CCc3c([nH]c4ccccc34)[C@@](C(=O)OC)(c3cc4c(cc3OC)N(C=O)C3[C@]45CCN4CC=C[C@@](CC)([C@@H](OC(C)=O)[C@]3(O)C(=O)OC)[C@H]45)C2)C1", "note": "(stereo not given in full)", "activity, negative = inhibition": "inactive: 3.92%"},
      {"smiles": "CCc1c(C)sc(NC(=O)c2cc(-c3ccc(OC)c(OC)c3)on2)c1C#N", "activity, negative = inhibition": "inactive: -6.95%"},
      {"smiles": "COC(=O)C/C=C\\[C@@H](C)[C@@H](/C=N\\OC[C@@H]1O[C@H](c2ccccc2)C=C[C@@H]1Oc1ccc(OC)cc1)OC", "activity, negative = inhibition": "inactive: -13.5% [at 11.5 µM]"},
      {"smiles": "Cc1ccc(C(=O)N/C(=C\\C=C\\c2ccccc2)C(=O)NCc2ccco2)cc1", "activity, negative = inhibition": "inactive: -6.91%"},
      {"smiles": "C=CCN1CCc2c(cc(O)c(O)c2Cl)C(c2ccccc2)C1", "note": "(stereo not given)", "Potency": "inactive"},
      {"smiles": "CCOC(=O)C1=C[C@@]2(CC)CCCN3CCc4c(n1c1ccccc41)[C@H]32", "activity, negative = inhibition": "inactive: -6.82%"},
      {"smiles": "CC1(C)[C@@H](O)CC[C@]2(C)[C@H]3C(=O)C=C4[C@@H]5C[C@@](C)(C(=O)O)CC[C@]5(C)CC[C@@]4(C)[C@]3(C)CC[C@@H]12", "activity, negative = inhibition": "inactive: -13.4%"},
      {"smiles": "Oc1ccc([C@@H]2CNCCc3c2cc(O)c(O)c3Cl)cc1", "activity, negative = inhibition": "inactive: -25.1%"},
      {"smiles": "CC1=NN(c2ccccc2)C(=O)/C1=C/c1ccc[nH]1", "Potency": "active: 12.6 µM"},
      {"smiles": "CC(=O)Nc1sc(N/N=C/c2ccc(N(C)C)cc2)nc1-c1ccc(C)cc1", "Potency": "active: 15.8 µM"},
      {"smiles": "COc1ccc(-n2c(CCC(=O)O)ccc2-c2ccccc2)cc1", "activity, negative = inhibition": "inactive: -6.66%"},
      {"smiles": "CCO[C@H]1OC(C(=O)NC2CC2)=C[C@@H](c2ccccc2)[C@@H]1CCCO", "activity, negative = inhibition": "inactive: 0.168%"},
      {"smiles": "O=C(O)CCNc1cc2ccccc2cc1C(=O)O", "Potency": "active: 15.8 µM"},
      {"smiles": "CN=C1S/C(=C\\c2cn(CC(=O)OC)c3ccccc23)C(=O)N1C", "activity, negative = inhibition": "inactive: -8.37%"}
    ]}
  ]
}
